For four molecules, Kd results are on record in US20260116938A1 (RELINIA, published 2026).

T1: huTNFR2-Fc (human, UniProt P20333 23-257)
T1 construct: Coated on ELISA wells; also called hTNFR2-Fc
T1 sequence (looked up): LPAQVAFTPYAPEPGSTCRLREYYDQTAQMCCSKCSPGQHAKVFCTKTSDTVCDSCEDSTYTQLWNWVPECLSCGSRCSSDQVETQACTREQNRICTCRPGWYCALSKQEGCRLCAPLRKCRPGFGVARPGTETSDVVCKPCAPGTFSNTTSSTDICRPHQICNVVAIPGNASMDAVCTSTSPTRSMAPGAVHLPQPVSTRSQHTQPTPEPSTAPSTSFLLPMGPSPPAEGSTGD

B1: SEQ ID NO: 101 (Fc fusion)
chain: [about 400 residues with a human IgG4 Fc not written out]GGGGSSSRTPSDKPVAHVVANPQAEGQLQWLNRRANALLANGVELRDNQLVVPSEGLYLIYSQVLFKGQGCPSTHVLLTHTISRIAVSYQTKVNLLSAIKSPCQRETPEGAEAKPWYEPIYLGGVFQLEKGDRLSAEINRPDYLNFRESGQVYFGIIALGGGGSSSRTPSDKPVAHVVANPQAEGQLQWLNRRANALLANGVELRDNQLVVPSEGLYLIYSQVLFKGQGCPSTHVLLTHTISRIAVSYQTKVNLLSAIKSPCQRETPEGAEAKPWYEPIYLGGVFQLEKGDRLSAEINRPDYLNFRESGQVYFGIIAL
notes: also called Fc-scTNFR2
B2: SEQ ID NO: 113 (other)
chain: [about 400 residues with a human IgG1 Fc not written out]GGGGSSSRTPSDKPVAHVVANPQAEGQLQWLNRRANALLANGVELRDNQLVVPSEGLYLIYSQVLFKGQGCPSTHVLLTHTISRIAVSYQTKVNLLSAIKSPCQRETPEGAEAKPWYEPIYLGGVFQLEKGDRLSAEINRPDYLNFRESGQVYFGIIALGGGGSSSRTPSDKPVAHVVANPQAEGQLQWLNRRANALLANGVELRDNQLVVPSEGLYLIYSQVLFKGQGCPSTHVLLTHTISRIAVSYQTKVNLLSAIKSPCQRETPEGAEAKPWYEPIYLGGVFQLEKGDRLSAEINRPDYLNFRESGQVYFGIIAL
B3: SEQ ID NO: 116 (other)
chain: [about 150 residues not written out]GGGGSSSRTPSDKPVAHVVANPQAEGQLQWLNRRANALLANGVELRDNQLVVPSEGLYLIYSQVLFKGQGCPSTHVLLTHTISRIAVSYQTKVNLLSAIKSPCQRETPEGAEAKPWYEPIYLGGVFQLEKGDRLSAEINRPDYLNFRESGQVYFGIIALGGGGSSSRTPSDKPVAHVVANPQAEGQLQWLNRRANALLANGVELRDNQLVVPSEGLYLIYSQVLFKGQGCPSTHVLLTHTISRIAVSYQTKVNLLSAIKSPCQRETPEGAEAKPWYEPIYLGGVFQLEKGDRLSAEINRPDYLNFRESGQVYFGIIALGGGGSERKSSVECPPCPAPPVAGPSVFLFPPKPKDTLMISRTPEVTCVVVDVSHEDPEVQFNWYVDGVEVHNAKTKPREEQFNSTFRVVSVLTVVHQDWLNGKEYKCKVSNKGLPASIEKTISKTKGQPREPQVYTLPPSREEMTKNQVSLTCLVKGFYPSDIAVEWESNGQPENNYKTTPPMLDSDGSFFLYSKLTVDKSRWQQGNVFSCSVMHEALHNHYTQKSLSLSPGK
B4: SEQ ID NO: 115 (other)
chain: [about 150 residues not written out]GGGGSSSRTPSDKPVAHVVANPQAEGQLQWLNRRANALLANGVELRDNQLVVPSEGLYLIYSQVLFKGQGCPSTHVLLTHTISRIAVSYQTKVNLLSAIKSPCQRETPEGAEAKPWYEPIYLGGVFQLEKGDRLSAEINRPDYLNFRESGQVYFGIIALGGGGSSSRTPSDKPVAHVVANPQAEGQLQWLNRRANALLANGVELRDNQLVVPSEGLYLIYSQVLFKGQGCPSTHVLLTHTISRIAVSYQTKVNLLSAIKSPCQRETPEGAEAKPWYEPIYLGGVFQLEKGDRLSAEINRPDYLNFRESGQVYFGIIALGGGGS[human IgG1 Fc with C220S L234A L235A P331S (EU numbers) not written out]

The test deals with T1, huTNFR2-Fc. Kind of test: ELISA, coated hTNFR2-Fc, detection with anti-TNF alpha mAb F6C5. (In general: ELISA stands for enzyme-linked immunosorbent assay.)
In turn, B1 returned a Kd of 440 pM.
Molecule B2 gave a Kd of 210 pM. Compared with the last molecule, the Kd is about 2.1-fold lower.
The molecule B3 registered a Kd of 300 pM. The Kd values of the last two molecules are within 1.5-fold of each other.
B4 registered a Kd of 280 pM. This Kd and that of the molecule before are within 1.5-fold of each other.

As a reminder, the Kd is a measure of binding affinity in units of concentration. Lower therefore signals tighter binding.
